The values below come from PMC6155137.

Amino acid sequences for entries named in this document (tags omitted). Residues count along the entry.
UniProt Q9UNE7: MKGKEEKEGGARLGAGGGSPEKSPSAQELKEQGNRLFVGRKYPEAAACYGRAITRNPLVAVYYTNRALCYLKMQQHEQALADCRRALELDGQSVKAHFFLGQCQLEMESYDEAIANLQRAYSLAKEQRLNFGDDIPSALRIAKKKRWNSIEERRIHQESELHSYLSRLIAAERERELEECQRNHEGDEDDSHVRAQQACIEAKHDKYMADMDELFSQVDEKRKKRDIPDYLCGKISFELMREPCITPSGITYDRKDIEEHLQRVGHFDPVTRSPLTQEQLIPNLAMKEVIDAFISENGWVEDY
UniProt P38646, residues 47-679: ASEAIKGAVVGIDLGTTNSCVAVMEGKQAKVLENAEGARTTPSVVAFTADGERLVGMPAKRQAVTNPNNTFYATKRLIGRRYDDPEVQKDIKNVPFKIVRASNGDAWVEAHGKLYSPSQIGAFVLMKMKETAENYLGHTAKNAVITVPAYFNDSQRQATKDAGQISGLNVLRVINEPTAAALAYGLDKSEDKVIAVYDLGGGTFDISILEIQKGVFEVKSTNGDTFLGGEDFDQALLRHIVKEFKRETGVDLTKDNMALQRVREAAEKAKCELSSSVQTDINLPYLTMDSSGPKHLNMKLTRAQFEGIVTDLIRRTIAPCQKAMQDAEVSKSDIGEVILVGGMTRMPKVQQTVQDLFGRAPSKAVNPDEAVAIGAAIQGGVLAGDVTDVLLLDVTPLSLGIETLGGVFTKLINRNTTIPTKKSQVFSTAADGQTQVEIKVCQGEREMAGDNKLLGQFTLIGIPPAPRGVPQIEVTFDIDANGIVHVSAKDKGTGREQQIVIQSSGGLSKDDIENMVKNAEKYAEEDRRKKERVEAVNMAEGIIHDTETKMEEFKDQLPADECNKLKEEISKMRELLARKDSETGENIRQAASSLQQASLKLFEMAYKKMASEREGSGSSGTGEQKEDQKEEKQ

In experiment [1] the target is CHIP, endogenous in SKOV-3 cells (human (endogenous in SKOV-3)) (UniProt Q9UNE7). Put plainly: co-IP; co-IP of GRP75 with endogenous CHIP and with exogenous myc-CHIP (Supplementary Fig. 6); cells and antibodies not stated in the text shown.
In experiment [2] the target is T1, GST-proto-Dbl (residues 1-925) (human) (UniProt P10911).
T1 sequence: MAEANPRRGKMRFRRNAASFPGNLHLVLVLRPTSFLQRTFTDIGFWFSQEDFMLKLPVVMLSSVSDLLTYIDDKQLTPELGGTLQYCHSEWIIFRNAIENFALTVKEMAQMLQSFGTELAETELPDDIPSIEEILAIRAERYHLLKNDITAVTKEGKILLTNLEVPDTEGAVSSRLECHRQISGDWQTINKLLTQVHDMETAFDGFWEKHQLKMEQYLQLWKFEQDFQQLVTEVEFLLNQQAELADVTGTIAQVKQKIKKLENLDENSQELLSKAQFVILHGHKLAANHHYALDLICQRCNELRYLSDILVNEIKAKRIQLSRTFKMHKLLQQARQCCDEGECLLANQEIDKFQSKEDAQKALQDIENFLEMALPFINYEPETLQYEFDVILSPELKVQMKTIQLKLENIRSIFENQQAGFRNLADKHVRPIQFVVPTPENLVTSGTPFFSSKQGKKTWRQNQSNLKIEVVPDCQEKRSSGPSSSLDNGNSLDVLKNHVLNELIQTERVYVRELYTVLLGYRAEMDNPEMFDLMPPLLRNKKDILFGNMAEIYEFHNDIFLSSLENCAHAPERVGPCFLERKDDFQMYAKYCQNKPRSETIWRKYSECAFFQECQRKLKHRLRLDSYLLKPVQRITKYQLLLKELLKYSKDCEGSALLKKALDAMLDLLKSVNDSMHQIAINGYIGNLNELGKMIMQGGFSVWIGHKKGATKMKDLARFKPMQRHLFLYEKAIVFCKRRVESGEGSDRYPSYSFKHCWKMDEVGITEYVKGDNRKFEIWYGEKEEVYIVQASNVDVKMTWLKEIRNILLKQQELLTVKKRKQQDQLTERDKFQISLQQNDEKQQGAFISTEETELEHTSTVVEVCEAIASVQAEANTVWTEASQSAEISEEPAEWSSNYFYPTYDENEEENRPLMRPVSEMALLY
Put plainly: co-IP; GRP75 KD (G3) and NC Cos-7 stable cells co-transfected with GST-Dbl constructs and myc-CHIP; 48 h after transfection GST-Dbl immunoprecipitated by mouse anti-GST Ab, CHIP detected by rabbit anti-Myc Ab.

For experiment [3], the target named is T1, GST-proto-Dbl (residues 1-925) (human). Put plainly: pull-down; GRP75 KD (G3) and NC Cos-7 stable cell lines co-transfected with GST-Dbl constructs and myc-CHIP; GST-proto-Dbl pulled down from lysate (the legend says by mouse anti-GST Ab); Western blot for CHIP, Hsc70, HSP90. (A western blot detects proteins with antibodies after separation by electrophoresis.)

For experiment [4], the target named is T2, proto-Dbl (dbl proto-oncogene product), endogenous in SKOV-3 cells (human (endogenous in SKOV-3)) (UniProt P10911).
T2 sequence: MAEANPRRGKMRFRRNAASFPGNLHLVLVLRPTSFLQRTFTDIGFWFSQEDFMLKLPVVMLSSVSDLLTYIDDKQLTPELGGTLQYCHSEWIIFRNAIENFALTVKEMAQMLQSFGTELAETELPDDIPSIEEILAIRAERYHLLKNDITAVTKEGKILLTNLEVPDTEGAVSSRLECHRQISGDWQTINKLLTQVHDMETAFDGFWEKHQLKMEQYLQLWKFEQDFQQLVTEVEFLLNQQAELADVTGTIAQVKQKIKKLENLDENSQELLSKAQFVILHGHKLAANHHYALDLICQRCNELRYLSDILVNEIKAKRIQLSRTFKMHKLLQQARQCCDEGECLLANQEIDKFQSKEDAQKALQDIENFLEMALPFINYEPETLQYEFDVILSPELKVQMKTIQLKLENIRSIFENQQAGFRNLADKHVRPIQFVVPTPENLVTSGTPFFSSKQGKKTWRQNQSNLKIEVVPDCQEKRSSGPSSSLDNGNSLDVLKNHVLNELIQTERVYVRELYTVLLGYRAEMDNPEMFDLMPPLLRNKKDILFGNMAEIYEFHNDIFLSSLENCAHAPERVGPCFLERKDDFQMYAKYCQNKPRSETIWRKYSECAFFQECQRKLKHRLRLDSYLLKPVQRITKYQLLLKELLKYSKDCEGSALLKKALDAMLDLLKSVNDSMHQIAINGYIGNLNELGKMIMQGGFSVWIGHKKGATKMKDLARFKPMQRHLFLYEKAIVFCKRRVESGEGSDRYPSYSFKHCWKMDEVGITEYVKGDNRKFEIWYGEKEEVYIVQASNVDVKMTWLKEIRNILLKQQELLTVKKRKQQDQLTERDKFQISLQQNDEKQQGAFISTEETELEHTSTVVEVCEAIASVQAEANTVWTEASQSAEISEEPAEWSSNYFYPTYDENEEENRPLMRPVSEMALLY
Put plainly: co-IP; endogenous CHIP co-immunoprecipitated by Dbl Ab in SKOV-3 cells (with and without GRP75 knockdown).

The target in experiment [5] is GRP75 (mortalin/HspA9), endogenous in SKOV-3 cells (human (endogenous in SKOV-3)) (UniProt P38646). Put plainly: co-IP; endogenous proteins in SKOV-3 lysate, both directions: mouse anti-GRP75 Ab and rabbit anti-Dbl Ab, isotype-matched IgG as control; Western blot.

Results are given in words; binding and its absence hold for the method and conditions named. Binding seen in cells or lysates may run through a third protein. Some binding calls cover weakened binding; strength is not graded here. For some assays here: Where a sequence is shown, tags or fusion partners need not be part of it.

“GRP75 (mortalin/HspA9), endogenous in SKOV-3 cells (from UniProt P38646 47-679)”: in experiment [1], the binding result was “no binding”. Take “myc-CHIP (carboxyl terminus of Hsc70/Hsp70/90-interacting protein, myc-tagged) (from UniProt Q9UNE7 1-303) (enzyme)”: the binding entry in experiment [2] and in experiment [3] was “binds” each time. For the molecule “CHIP, endogenous in SKOV-3 cells (from UniProt Q9UNE7 1-303) (enzyme)”, the binding entry in experiment [4] is reported as “binds”.

B1: proto-Dbl (dbl proto-oncogene product), endogenous in SKOV-3 cells (protein, UniProt P10911 1-925)
chain: MAEANPRRGKMRFRRNAASFPGNLHLVLVLRPTSFLQRTFTDIGFWFSQEDFMLKLPVVMLSSVSDLLTYIDDKQLTPELGGTLQYCHSEWIIFRNAIENFALTVKEMAQMLQSFGTELAETELPDDIPSIEEILAIRAERYHLLKNDITAVTKEGKILLTNLEVPDTEGAVSSRLECHRQISGDWQTINKLLTQVHDMETAFDGFWEKHQLKMEQYLQLWKFEQDFQQLVTEVEFLLNQQAELADVTGTIAQVKQKIKKLENLDENSQELLSKAQFVILHGHKLAANHHYALDLICQRCNELRYLSDILVNEIKAKRIQLSRTFKMHKLLQQARQCCDEGECLLANQEIDKFQSKEDAQKALQDIENFLEMALPFINYEPETLQYEFDVILSPELKVQMKTIQLKLENIRSIFENQQAGFRNLADKHVRPIQFVVPTPENLVTSGTPFFSSKQGKKTWRQNQSNLKIEVVPDCQEKRSSGPSSSLDNGNSLDVLKNHVLNELIQTERVYVRELYTVLLGYRAEMDNPEMFDLMPPLLRNKKDILFGNMAEIYEFHNDIFLSSLENCAHAPERVGPCFLERKDDFQMYAKYCQNKPRSETIWRKYSECAFFQECQRKLKHRLRLDSYLLKPVQRITKYQLLLKELLKYSKDCEGSALLKKALDAMLDLLKSVNDSMHQIAINGYIGNLNELGKMIMQGGFSVWIGHKKGATKMKDLARFKPMQRHLFLYEKAIVFCKRRVESGEGSDRYPSYSFKHCWKMDEVGITEYVKGDNRKFEIWYGEKEEVYIVQASNVDVKMTWLKEIRNILLKQQELLTVKKRKQQDQLTERDKFQISLQQNDEKQQGAFISTEETELEHTSTVVEVCEAIASVQAEANTVWTEASQSAEISEEPAEWSSNYFYPTYDENEEENRPLMRPVSEMALLY
Turning to B1, the binding result in experiment [5] was “no binding”.
